# Reference: paper PMC9911399, “Two distinct binding modes provide the RNA-binding protein RbFox with extraordinary sequence specificity”
# Where a chain is given by its changes, count along the chain named. Some of the results follow.
# T1: RBFOX1 RRM RbFoxmut (Fox-RRM*) (Homo sapiens, UniProt Q9NWB1 109-208, R118D;E147R;N151S;E152T)
# T1 sequence: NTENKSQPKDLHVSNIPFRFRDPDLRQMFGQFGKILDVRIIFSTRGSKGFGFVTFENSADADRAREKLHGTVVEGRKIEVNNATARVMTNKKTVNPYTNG
# B1: UACGGAG (DNA:RNA)
# RNA: GGGAGACCGGAAUUCAGAUUGUCCUACGGAGUUAAAUCCCGUCGUAGCCACCA
# DNA 1: CAATCTGAATTCCGGTCTCCC
# DNA 2: TGGTGGCTACGACGGGATT
# B2: UACACAA (DNA:RNA)
# RNA: B1 RNA with G28A, G29C, G31A
# DNA 1: CAATCTGAATTCCGGTCTCCC
# DNA 2: TGGTGGCTACGACGGGATT
# B3: CCCUGGU (DNA:RNA)
# RNA: B1 RNA with U25C, A26C, G28U, A30G, G31U
# DNA 1: CAATCTGAATTCCGGTCTCCC
# DNA 2: TGGTGGCTACGACGGGATT
# B4: GGUAGUU (DNA:RNA)
# RNA: B1 RNA with U25G, A26G, C27U, G28A, A30U, G31U
# DNA 1: CAATCTGAATTCCGGTCTCCC
# DNA 2: TGGTGGCTACGACGGGATT
# B5: CGCGCAC (DNA:RNA)
# RNA: B1 RNA with U25C, A26G, G29C, G31C
# DNA 1: CAATCTGAATTCCGGTCTCCC
# DNA 2: TGGTGGCTACGACGGGATT
# B6: UGAACCG (DNA:RNA)
# RNA: B1 RNA with A26G, C27A, G28A, G29C, A30C
# DNA 1: CAATCTGAATTCCGGTCTCCC
# DNA 2: TGGTGGCTACGACGGGATT
# B7: GAGUGCG (DNA:RNA)
# RNA: B1 RNA with U25G, C27G, G28U, A30C
# DNA 1: CAATCTGAATTCCGGTCTCCC
# DNA 2: TGGTGGCTACGACGGGATT
# B8: GGCAUAC (DNA:RNA)
# RNA: B1 RNA with U25G, A26G, G28A, G29U, G31C
# DNA 1: CAATCTGAATTCCGGTCTCCC
# DNA 2: TGGTGGCTACGACGGGATT
# B9: UCCGCCC (DNA:RNA)
# RNA: B1 RNA with A26C, G29C, A30C, G31C
# DNA 1: CAATCTGAATTCCGGTCTCCC
# DNA 2: TGGTGGCTACGACGGGATT
# B10: AGCACCU (DNA:RNA)
# RNA: B1 RNA with U25A, A26G, G28A, G29C, A30C, G31U
# DNA 1: CAATCTGAATTCCGGTCTCCC
# DNA 2: TGGTGGCTACGACGGGATT
# B11: CAUAAAC (DNA:RNA)
# RNA: B1 RNA with U25C, C27U, G28A, G29A, G31C
# DNA 1: CAATCTGAATTCCGGTCTCCC
# DNA 2: TGGTGGCTACGACGGGATT
# B12: ACCAUCC (DNA:RNA)
# RNA: B1 RNA with U25A, A26C, G28A, G29U, A30C, G31C
# DNA 1: CAATCTGAATTCCGGTCTCCC
# DNA 2: TGGTGGCTACGACGGGATT
# B13: ACGCGUC (DNA:RNA)
# RNA: B1 RNA with U25A, A26C, C27G, G28C, A30U, G31C
# DNA 1: CAATCTGAATTCCGGTCTCCC
# DNA 2: TGGTGGCTACGACGGGATT
# B14: AGCCUUA (DNA:RNA)
# RNA: B1 RNA with U25A, A26G, G28C, G29U, A30U, G31A
# DNA 1: CAATCTGAATTCCGGTCTCCC
# DNA 2: TGGTGGCTACGACGGGATT
# B15: AUCAGCA (DNA:RNA)
# RNA: B1 RNA with U25A, A26U, G28A, A30C, G31A
# DNA 1: CAATCTGAATTCCGGTCTCCC
# DNA 2: TGGTGGCTACGACGGGATT
# B16: CACCGUC (DNA:RNA)
# RNA: B1 RNA with U25C, G28C, A30U, G31C
# DNA 1: CAATCTGAATTCCGGTCTCCC
# DNA 2: TGGTGGCTACGACGGGATT
# B17: AUUCCGG (DNA:RNA)
# RNA: B1 RNA with U25A, A26U, C27U, G28C, G29C, A30G
# DNA 1: CAATCTGAATTCCGGTCTCCC
# DNA 2: TGGTGGCTACGACGGGATT
# B18: CCCUCGU (DNA:RNA)
# RNA: B1 RNA with U25C, A26C, G28U, G29C, A30G, G31U
# DNA 1: CAATCTGAATTCCGGTCTCCC
# DNA 2: TGGTGGCTACGACGGGATT
# B19: AAUACUA (DNA:RNA)
# RNA: B1 RNA with U25A, C27U, G28A, G29C, A30U, G31A
# DNA 1: CAATCTGAATTCCGGTCTCCC
# DNA 2: TGGTGGCTACGACGGGATT
# B20: CUGACAG (DNA:RNA)
# RNA: B1 RNA with U25C, A26U, C27G, G28A, G29C
# DNA 1: CAATCTGAATTCCGGTCTCCC
# DNA 2: TGGTGGCTACGACGGGATT
# B21: CUAGCGG (DNA:RNA)
# RNA: B1 RNA with U25C, A26U, C27A, G29C, A30G
# DNA 1: CAATCTGAATTCCGGTCTCCC
# DNA 2: TGGTGGCTACGACGGGATT
# B22: CACUAUA (DNA:RNA)
# RNA: B1 RNA with U25C, G28U, G29A, A30U, G31A
# DNA 1: CAATCTGAATTCCGGTCTCCC
# DNA 2: TGGTGGCTACGACGGGATT
# B23: AGGUUUG (DNA:RNA)
# RNA: B1 RNA with U25A, A26G, C27G, G28U, G29U, A30U
# DNA 1: CAATCTGAATTCCGGTCTCCC
# DNA 2: TGGTGGCTACGACGGGATT
# B24: UUGAUGU (DNA:RNA)
# RNA: B1 RNA with A26U, C27G, G28A, G29U, A30G, G31U
# DNA 1: CAATCTGAATTCCGGTCTCCC
# DNA 2: TGGTGGCTACGACGGGATT
# B25: UUAUGAU (DNA:RNA)
# RNA: B1 RNA with A26U, C27A, G28U, G31U
# DNA 1: CAATCTGAATTCCGGTCTCCC
# DNA 2: TGGTGGCTACGACGGGATT
# B26: AGCUCUA (DNA:RNA)
# RNA: B1 RNA with U25A, A26G, G28U, G29C, A30U, G31A
# DNA 1: CAATCTGAATTCCGGTCTCCC
# DNA 2: TGGTGGCTACGACGGGATT
# B27: GAAGAAU (DNA:RNA)
# RNA: B1 RNA with U25G, C27A, G29A, G31U
# DNA 1: CAATCTGAATTCCGGTCTCCC
# DNA 2: TGGTGGCTACGACGGGATT
# B28: UAAGUAC (DNA:RNA)
# RNA: B1 RNA with C27A, G29U, G31C
# DNA 1: CAATCTGAATTCCGGTCTCCC
# DNA 2: TGGTGGCTACGACGGGATT
# B29: CACGUGA (DNA:RNA)
# RNA: B1 RNA with U25C, G29U, A30G, G31A
# DNA 1: CAATCTGAATTCCGGTCTCCC
# DNA 2: TGGTGGCTACGACGGGATT
# B30: CAAUAAG (DNA:RNA)
# RNA: B1 RNA with U25C, C27A, G28U, G29A
# DNA 1: CAATCTGAATTCCGGTCTCCC
# DNA 2: TGGTGGCTACGACGGGATT
# B31: GACCGUA (DNA:RNA)
# RNA: B1 RNA with U25G, G28C, A30U, G31A
# DNA 1: CAATCTGAATTCCGGTCTCCC
# DNA 2: TGGTGGCTACGACGGGATT
# Target: T1, RBFOX1 RRM RbFoxmut (Fox-RRM*)
# Experiment: EMSA; HiTS-Eq, 1 nM pool, 10 min; buffer printed only for the single-RNA assays: 10 mM Tris pH 7.5, 150 mM NaCl, 3.4 mM EDTA, 0.001% NP-40, 30 C
# Details: tags: His6 N-terminal (pET28a); label: 5' 32P
# Summary of the method: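 Relative association constants, normalised to the cognate motif, were derived by comparing read counts of each RNA species with those of the control reaction. The RNA sequenced was the free fraction, separated by 8% native PAGE after a 10 min equilibration in 50 µL of 1 nM 5′-radiolabelled RNA (7 randomized nucleotides) with increasing concentrations of purified wild-type or mutant RbFox RRM.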
row,Binder,binding signal
1,B1,0.0783 KA relative to UGCAUGU
2,B2,0.0712 KA relative to UGCAUGU
3,B3,0.127 KA relative to UGCAUGU
4,B4,0.0991 KA relative to UGCAUGU
5,B5,0.0912 KA relative to UGCAUGU
6,B6,0.0911 KA relative to UGCAUGU
7,B7,0.168 KA relative to UGCAUGU
8,B8,0.11 KA relative to UGCAUGU
9,B9,0.0339 KA relative to UGCAUGU
10,B10,0.072 KA relative to UGCAUGU
11,B11,0.0964 KA relative to UGCAUGU
12,B12,0.044 KA relative to UGCAUGU
13,B13,0.0969 KA relative to UGCAUGU
14,B14,0.115 KA relative to UGCAUGU
15,B15,0.111 KA relative to UGCAUGU
16,B16,0.0639 KA relative to UGCAUGU

row,Binder,binding signal
1,B17,0.0577 KA relative to UGCAUGU
2,B18,0.109 KA relative to UGCAUGU
3,B19,0.111 KA relative to UGCAUGU
4,B20,0.0519 KA relative to UGCAUGU
5,B21,0.0785 KA relative to UGCAUGU
6,B22,0.123 KA relative to UGCAUGU
7,B23,0.525 KA relative to UGCAUGU
8,B24,0.127 KA relative to UGCAUGU
9,B25,0.0757 KA relative to UGCAUGU
10,B26,0.075 KA relative to UGCAUGU
11,B27,0.0873 KA relative to UGCAUGU
12,B28,0.0736 KA relative to UGCAUGU
13,B29,0.101 KA relative to UGCAUGU
14,B30,0.11 KA relative to UGCAUGU
15,B31,0.103 KA relative to UGCAUGU
